PMC9911399, “Two distinct binding modes provide the RNA-binding protein RbFox with extraordinary sequence specificity”
Substitutions are numbered along the chain they refer to; changes in the protein carry UniProt numbers. This is one part of the list.

T1: RBFOX1 RRM (Homo sapiens, UniProt Q9NWB1 109-208)
T1 sequence: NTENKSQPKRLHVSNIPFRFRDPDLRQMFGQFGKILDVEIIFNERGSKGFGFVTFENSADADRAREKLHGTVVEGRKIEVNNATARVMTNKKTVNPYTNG

B1: CGCUCAC (DNA:RNA)
RNA: GGGAGACCGGAAUUCAGAUUGUCCCGCUCACUUAAAUCCCGUCGUAGCCACCA
DNA 1: CAATCTGAATTCCGGTCTCCC
DNA 2: TGGTGGCTACGACGGGATT
B2: GCGGUCA (DNA:RNA)
RNA: GGGAGACCGGAAUUCAGAUUGUCCGCGGUCAUUAAAUCCCGUCGUAGCCACCA
DNA 1: CAATCTGAATTCCGGTCTCCC
DNA 2: TGGTGGCTACGACGGGATT
B3: UGAGUUG (DNA:RNA)
RNA: B2 RNA with G25U, C26G, G27A, C30U, A31G
DNA 1: CAATCTGAATTCCGGTCTCCC
DNA 2: TGGTGGCTACGACGGGATT
B4: UUUGGCC (DNA:RNA)
RNA: B2 RNA with G25U, C26U, G27U, U29G, A31C
DNA 1: CAATCTGAATTCCGGTCTCCC
DNA 2: TGGTGGCTACGACGGGATT
B5: GACGUUA (DNA:RNA)
RNA: B2 RNA with C26A, G27C, C30U
DNA 1: CAATCTGAATTCCGGTCTCCC
DNA 2: TGGTGGCTACGACGGGATT
B6: GGACCAG (DNA:RNA)
RNA: B1 RNA with C25G, C27A, U28C, C31G
DNA 1: CAATCTGAATTCCGGTCTCCC
DNA 2: TGGTGGCTACGACGGGATT
B7: AUGGUUU (DNA:RNA)
RNA: B2 RNA with G25A, C26U, C30U, A31U
DNA 1: CAATCTGAATTCCGGTCTCCC
DNA 2: TGGTGGCTACGACGGGATT
B8: ACGACAA (DNA:RNA)
RNA: B2 RNA with G25A, G28A, U29C, C30A
DNA 1: CAATCTGAATTCCGGTCTCCC
DNA 2: TGGTGGCTACGACGGGATT
B9: UAGGACU (DNA:RNA)
RNA: B2 RNA with G25U, C26A, U29A, A31U
DNA 1: CAATCTGAATTCCGGTCTCCC
DNA 2: TGGTGGCTACGACGGGATT
B10: UGCUAUG (DNA:RNA)
RNA: B1 RNA with C25U, C29A, A30U, C31G
DNA 1: CAATCTGAATTCCGGTCTCCC
DNA 2: TGGTGGCTACGACGGGATT
B11: GAGCGAU (DNA:RNA)
RNA: B2 RNA with C26A, G28C, U29G, C30A, A31U
DNA 1: CAATCTGAATTCCGGTCTCCC
DNA 2: TGGTGGCTACGACGGGATT
B12: UAGAGUA (DNA:RNA)
RNA: B2 RNA with G25U, C26A, G28A, U29G, C30U
DNA 1: CAATCTGAATTCCGGTCTCCC
DNA 2: TGGTGGCTACGACGGGATT
B13: AAUGAGA (DNA:RNA)
RNA: B2 RNA with G25A, C26A, G27U, U29A, C30G
DNA 1: CAATCTGAATTCCGGTCTCCC
DNA 2: TGGTGGCTACGACGGGATT
B14: GCCUUGC (DNA:RNA)
RNA: B1 RNA with C25G, G26C, C29U, A30G
DNA 1: CAATCTGAATTCCGGTCTCCC
DNA 2: TGGTGGCTACGACGGGATT
B15: CAAAAUA (DNA:RNA)
RNA: B1 RNA with G26A, C27A, U28A, C29A, A30U, C31A
DNA 1: CAATCTGAATTCCGGTCTCCC
DNA 2: TGGTGGCTACGACGGGATT
B16: AGUGUAC (DNA:RNA)
RNA: B1 RNA with C25A, C27U, U28G, C29U
DNA 1: CAATCTGAATTCCGGTCTCCC
DNA 2: TGGTGGCTACGACGGGATT
B17: UGCAAGC (DNA:RNA)
RNA: B1 RNA with C25U, U28A, C29A, A30G
DNA 1: CAATCTGAATTCCGGTCTCCC
DNA 2: TGGTGGCTACGACGGGATT
B18: ACGGUGG (DNA:RNA)
RNA: B2 RNA with G25A, C30G, A31G
DNA 1: CAATCTGAATTCCGGTCTCCC
DNA 2: TGGTGGCTACGACGGGATT
B19: AUCGUUG (DNA:RNA)
RNA: B2 RNA with G25A, C26U, G27C, C30U, A31G
DNA 1: CAATCTGAATTCCGGTCTCCC
DNA 2: TGGTGGCTACGACGGGATT
B20: AUUAUAC (DNA:RNA)
RNA: B1 RNA with C25A, G26U, C27U, U28A, C29U
DNA 1: CAATCTGAATTCCGGTCTCCC
DNA 2: TGGTGGCTACGACGGGATT
B21: CUAUUCG (DNA:RNA)
RNA: B1 RNA with G26U, C27A, C29U, A30C, C31G
DNA 1: CAATCTGAATTCCGGTCTCCC
DNA 2: TGGTGGCTACGACGGGATT
B22: CAAUAGG (DNA:RNA)
RNA: B1 RNA with G26A, C27A, C29A, A30G, C31G
DNA 1: CAATCTGAATTCCGGTCTCCC
DNA 2: TGGTGGCTACGACGGGATT
B23: ACCCCGG (DNA:RNA)
RNA: B1 RNA with C25A, G26C, U28C, A30G, C31G
DNA 1: CAATCTGAATTCCGGTCTCCC
DNA 2: TGGTGGCTACGACGGGATT
B24: UAGUGAU (DNA:RNA)
RNA: B1 RNA with C25U, G26A, C27G, C29G, C31U
DNA 1: CAATCTGAATTCCGGTCTCCC
DNA 2: TGGTGGCTACGACGGGATT
B25: GUAGAGA (DNA:RNA)
RNA: B2 RNA with C26U, G27A, U29A, C30G
DNA 1: CAATCTGAATTCCGGTCTCCC
DNA 2: TGGTGGCTACGACGGGATT
B26: UGUAAAG (DNA:RNA)
RNA: B1 RNA with C25U, C27U, U28A, C29A, C31G
DNA 1: CAATCTGAATTCCGGTCTCCC
DNA 2: TGGTGGCTACGACGGGATT
B27: AAGGGAA (DNA:RNA)
RNA: B2 RNA with G25A, C26A, U29G, C30A
DNA 1: CAATCTGAATTCCGGTCTCCC
DNA 2: TGGTGGCTACGACGGGATT
B28: ACCACCU (DNA:RNA)
RNA: B1 RNA with C25A, G26C, U28A, A30C, C31U
DNA 1: CAATCTGAATTCCGGTCTCCC
DNA 2: TGGTGGCTACGACGGGATT
B29: CGCCAAA (DNA:RNA)
RNA: B1 RNA with U28C, C29A, C31A
DNA 1: CAATCTGAATTCCGGTCTCCC
DNA 2: TGGTGGCTACGACGGGATT
B30: GAGCCAC (DNA:RNA)
RNA: B1 RNA with C25G, G26A, C27G, U28C
DNA 1: CAATCTGAATTCCGGTCTCCC
DNA 2: TGGTGGCTACGACGGGATT
B31: UUGUCAC (DNA:RNA)
RNA: B1 RNA with C25U, G26U, C27G
DNA 1: CAATCTGAATTCCGGTCTCCC
DNA 2: TGGTGGCTACGACGGGATT

These binders were tested against T1, RBFOX1 RRM (assay: EMSA; HiTS-Eq, 1 nM pool, 10 min; buffer printed only for the single-RNA assays: 10 mM Tris pH 7.5, 150 mM NaCl, 3.4 mM EDTA, 0.001% NP-40, 30 C). Details: tags: His6 N-terminal (pET28a); label: 5' 32P.
Procedure, shortened: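 Purified RbFox RRM, wild type or mutant, was incubated for 10 min in 50 µL with 1 nM of a 5′-radiolabelled RNA pool carrying 7 randomized nucleotides, whose flanks were annealed to DNA oligonucleotides, over a series of increasing protein concentrations. Unbound RNA was resolved on 8% native PAGE, cut out, reverse-transcribed, barcoded by PCR and sequenced on an Illumina HiSeq 2500. Relative association constants were derived from changes in read counts for each RNA species versus the control reaction and normalised to the cognate motif.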

| Binder | binding signal |
| --- | --- |
| B1 | 0.00648 KA relative to UGCAUGU |
| B2 | 0.00871 KA relative to UGCAUGU |
| B3 | 0.0276 KA relative to UGCAUGU |
| B4 | 0.0184 KA relative to UGCAUGU |
| B5 | 0.00849 KA relative to UGCAUGU |
| B6 | 0.0132 KA relative to UGCAUGU |
| B7 | 0.0146 KA relative to UGCAUGU |
| B8 | 0.0016 KA relative to UGCAUGU |
| B9 | 0.00165 KA relative to UGCAUGU |
| B10 | 0.0227 KA relative to UGCAUGU |
| B11 | 0.0126 KA relative to UGCAUGU |
| B12 | 0.0123 KA relative to UGCAUGU |
| B13 | 0.00787 KA relative to UGCAUGU |
| B14 | 0.0319 KA relative to UGCAUGU |
| B15 | 0.00214 KA relative to UGCAUGU |
| B16 | 0.00886 KA relative to UGCAUGU |

| Binder | binding signal |
| --- | --- |
| B17 | 0.0196 KA relative to UGCAUGU |
| B18 | 0.0165 KA relative to UGCAUGU |
| B19 | 0.0115 KA relative to UGCAUGU |
| B20 | 0.002 KA relative to UGCAUGU |
| B21 | 0.0141 KA relative to UGCAUGU |
| B22 | 0.00848 KA relative to UGCAUGU |
| B23 | 0.0123 KA relative to UGCAUGU |
| B24 | 0.00564 KA relative to UGCAUGU |
| B25 | 0.00953 KA relative to UGCAUGU |
| B26 | 0.0168 KA relative to UGCAUGU |
| B27 | 0.00655 KA relative to UGCAUGU |
| B28 | 0.00175 KA relative to UGCAUGU |
| B29 | 0.00244 KA relative to UGCAUGU |
| B30 | 0.00453 KA relative to UGCAUGU |
| B31 | 0.0114 KA relative to UGCAUGU |
